Data: PubChem BioAssay AID588453 (National Center for Advancing Translational Sciences (NCATS), 2011)
Out of some 390,000 compounds screened, about 4,000 (1%) were called active. The inconclusive results got no clear call from the source; some entries with a clear call stand among them for comparison. The call rests on the fitted dose curve; in most records, active means well fitted inhibition curve with a large enough effect; inconclusive means small, poorly fitted or top-dose-only effect; inactive means no such curve, though single readings can be large or run the other way. Potencies beside an inconclusive call are fits to weak or partial responses and may not hold up.

target: Thioredoxin reductase 1, cytoplasmic (Rattus norvegicus) (UniProt O89049); assay: qHTS Assay for Inhibitors of Mammalian Selenoprotein Thioredoxin Reductase 1 (TrxR1): qHTS; conditions: recombinant rTrxR1, NADPH fluorescence consumption, selenite substrate; series mostly up to 114 µM; further: nearly all actives have a fitted effect of over 65% in size
How it was run: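 Rat TrxR1 (90 nM in the dispensed reagent) was pre-reduced with 400 uM NADPH for 5 min at room temperature, then incubated with compound for 15 min. After 400 uM selenite was added, NADPH fluorescence (Ex 340/Em 450 nm) was followed for 8 min.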
Potency means the concentration at half of the fitted maximal effect; tags describe the fitted curve by direction and shape.

UniProt O89049, sequence (O89049 whole entry, looked up): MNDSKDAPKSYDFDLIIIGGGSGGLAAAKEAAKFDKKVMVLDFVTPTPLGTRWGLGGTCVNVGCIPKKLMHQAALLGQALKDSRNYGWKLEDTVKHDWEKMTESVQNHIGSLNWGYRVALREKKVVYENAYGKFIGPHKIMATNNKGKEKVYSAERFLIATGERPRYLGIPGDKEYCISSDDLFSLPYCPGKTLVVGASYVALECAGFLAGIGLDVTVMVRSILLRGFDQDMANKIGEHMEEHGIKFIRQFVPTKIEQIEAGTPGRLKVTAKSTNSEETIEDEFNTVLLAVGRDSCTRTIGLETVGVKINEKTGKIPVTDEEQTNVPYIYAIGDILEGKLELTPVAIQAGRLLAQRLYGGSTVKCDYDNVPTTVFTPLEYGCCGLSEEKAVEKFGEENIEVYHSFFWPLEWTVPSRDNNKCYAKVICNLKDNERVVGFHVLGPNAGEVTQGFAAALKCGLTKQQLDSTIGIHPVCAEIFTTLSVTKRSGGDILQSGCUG

Compound	Potency
Cc1noc2c1C(c1ccc(N(C)C)cc1)C1=C(CC(C)(C)CC1=O)N2 (stereo unspecified)	active: 50.1 µM
O=C(Nc1nc2ccccc2c(=O)s1)c1ccco1	inconclusive: 10 µM [inhibitor, partial curve]
O=C(O)CC/C(=N\Nc1ccccc1[N+](=O)[O-])c1cccs1	inconclusive: 89.1 µM [inhibitor, partial curve, poor fit]
COCCSc1nc2sc3c(c2c(=O)n1-c1ccccc1)CCN(C)C3	inconclusive: 79.4 µM [inhibitor, partial curve, poor fit]
COc1ccc(NC(=O)CN2C(=O)C(C)(C)c3ccccc32)cc1Cl	inactive
CCOc1ccc(C(=O)NCc2nnnn2-c2ccc(C)c(C)c2)cc1OCC	inactive
O=C(NCc1cccnc1)C1c2ccccc2C(=O)N1Cc1ccco1 (stereo unspecified)	inconclusive: 22.4 µM [inhibitor, full curve]
O=C(NCc1ccccc1)C1=C[C@H](c2ccc(C(F)(F)F)cc2)C[C@H](OCCCCO)O1	inconclusive: 10 µM [inhibitor, partial curve, poor fit]
O=C(CN(c1ccc(Cl)cc1)S(=O)(=O)c1ccc(Cl)c([N+](=O)[O-])c1)NCCc1ccc(F)cc1	inconclusive: 14.1 µM [inhibitor, partial curve]
Cc1cc(C)cc(Cn2ncc(Cl)c(Cl)c2=O)c1	active: 6.31 µM
Cc1cccc(C(=O)Nc2nnc(S(=O)(=O)N(C)Cc3ccc(Cl)cc3)s2)c1	inactive
Cc1ccccc1-n1c(=O)c(C#N)cc2c(=O)n3ccccc3nc21	inconclusive: 63.1 µM [inhibitor, single point]
CC(C)N(Cc1ccccc1)C(=O)CCc1ccccc1	inconclusive: 89.1 µM [inhibitor, partial curve, poor fit]
COC(=O)c1c(NC(=O)CCc2ccc(C)o2)sc(C)c1C	inconclusive: 17.8 µM [inhibitor, single point]
c1cncc(Nc2nc(-c3cccs3)cs2)c1	inconclusive: 35.5 µM [inhibitor, partial curve, poor fit]
CCOC(=O)N1CCC(NC(=O)c2cccn3c(=O)c4cc(Br)ccc4nc23)CC1	inconclusive: 89.1 µM [inhibitor, single point]
CCCCCC(=O)NC(=S)Nc1ccccc1C(=O)OC	inconclusive: 14.1 µM [inhibitor, partial curve]
O=C(COC(=O)c1ccc([N+](=O)[O-])o1)NCc1ccc2c(c1)OCO2	inconclusive: 39.8 µM [inhibitor, partial curve]
O=C(N1CCc2[nH]c3ccccc3c2C1)C(F)(F)F	inconclusive: 15.8 µM [inhibitor, full curve]
CC(=O)c1cccc(NC(=O)COc2ccccc2C(=O)Nc2ccccc2)c1	inconclusive: 89.1 µM [inhibitor, single point]
Cc1nc(-c2ccc(S(=O)(=O)N3CCN(c4cccc(Cl)c4)CC3)cc2)co1	inactive

Compound	Potency
COc1ccc(CCNC(=O)CSc2nc(-c3ccco3)cc(C(F)(F)F)n2)cc1	inconclusive: 3.16 µM [inhibitor, partial curve, poor fit]
Cc1noc(C)c1CSCC(=O)N1CCN(c2ccc([N+](=O)[O-])cc2)CC1	inactive
Cc1ccc(C=O)cc1Cl	inactive
C#Cc1ccc([C@H]2C=C(C(=O)N3CCN(Cc4ccc5c(c4)OCO5)CC3)O[C@@H](OCc3ccc(CO)cc3)C2)cc1	inconclusive: 28.2 µM [inhibitor, partial curve]
CN1CCc2nc(SCc3ccc(Cl)cc3)c(C#N)c(-c3cccs3)c2C1	inconclusive: 14.1 µM [inhibitor, single point]
Cc1n[nH]c(=S)n1/N=C/c1ccccc1OCc1ccc(Cl)cc1	inactive
CC(/C=C/c1ccco1)=N\NC(=O)c1cc(Cl)ccc1O	inconclusive: 56.2 µM [inhibitor, single point]
COc1cc(/C=N/n2c(-c3cc(C)[nH]n3)n[nH]c2=S)cc(OC)c1O	inconclusive: 31.6 µM [inhibitor, partial curve, poor fit]
Cc1ccccc1C(=O)Oc1cc(-c2ccc3c(c2)OCO3)cc(=O)c2c(C)oc(C)c12	inconclusive: 50.1 µM [inhibitor, single point]
CC(=NNC(=S)N1CC2CCC(CC2)C1)c1ccncn1	inconclusive: 2 µM [inhibitor, full curve, poor fit]
Cc1ccccc1-n1c(=O)cc(N2CCc3ccccc3C2)[nH]c1=O	inconclusive: 50.1 µM [inhibitor, partial curve]
O=C(Nc1ccc2c(c1)OCCO2)C1CCCN1S(=O)(=O)c1cccc2cccnc12 (stereo unspecified)	inconclusive: 0.794 µM [inhibitor, full curve, poor fit]
Cc1cccc(N(C(=O)CNC(=O)c2ccco2)C(C(=O)NC2CCCCC2)c2cccnc2)c1 (stereo unspecified)	inactive
O=C1C=C(N2CCOCC2)c2ccccc2C1=O	inconclusive: 28.2 µM [inhibitor, full curve, poor fit]
CCN(CC)CCCN1C(=O)C(O)=C(C(=O)c2ccc(C)o2)C1c1ccc(C)o1 (stereo unspecified)	inconclusive: 50.1 µM [inhibitor, partial curve, poor fit]
CCN1CCc2nc(NC(=O)CC(c3ccccc3)c3ccccc3)sc2C1	inconclusive: 28.2 µM [inhibitor, partial curve, poor fit]
CC(C)(C)NCC(O)Cn1cc(C=O)c2ccccc21 (stereo unspecified)	inconclusive: 70.8 µM [inhibitor, single point]
COC(=O)CCC(=O)OC1(C)C(=O)C=C2C=C(C3CC3)N(C3CCCCC3)C=C2C1=O (stereo unspecified)	inactive
CCC1(C)Cc2c(C#N)c(N)sc(=S)c2CO1 (stereo unspecified)	inconclusive: 89.1 µM [inhibitor, single point]
CC(=O)N(Cc1ccc2c(c1)OCO2)C1CC(=O)N(CCc2ccccc2)C1=O (stereo unspecified)	inconclusive: 56.2 µM [inhibitor, partial curve, poor fit]
